{
  "source": "paper PMC4336329",
  "about": "(PLoS ONE, 2015)",
  "note": "Among all 310,000 compounds or so, about 14,000 (4.5%) showed an effect of 50% or more. The effect is printed as a negative number. This is one part of the list.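 Note: peak tail current of the secondary pulse compared with the same well before compound.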",
  "data": [
    {"biological_target": "human ether-à-go-go-related gene (hERG) potassium channel (human, UniProt Q12809)", "sequence (Q12809 whole entry, looked up)": "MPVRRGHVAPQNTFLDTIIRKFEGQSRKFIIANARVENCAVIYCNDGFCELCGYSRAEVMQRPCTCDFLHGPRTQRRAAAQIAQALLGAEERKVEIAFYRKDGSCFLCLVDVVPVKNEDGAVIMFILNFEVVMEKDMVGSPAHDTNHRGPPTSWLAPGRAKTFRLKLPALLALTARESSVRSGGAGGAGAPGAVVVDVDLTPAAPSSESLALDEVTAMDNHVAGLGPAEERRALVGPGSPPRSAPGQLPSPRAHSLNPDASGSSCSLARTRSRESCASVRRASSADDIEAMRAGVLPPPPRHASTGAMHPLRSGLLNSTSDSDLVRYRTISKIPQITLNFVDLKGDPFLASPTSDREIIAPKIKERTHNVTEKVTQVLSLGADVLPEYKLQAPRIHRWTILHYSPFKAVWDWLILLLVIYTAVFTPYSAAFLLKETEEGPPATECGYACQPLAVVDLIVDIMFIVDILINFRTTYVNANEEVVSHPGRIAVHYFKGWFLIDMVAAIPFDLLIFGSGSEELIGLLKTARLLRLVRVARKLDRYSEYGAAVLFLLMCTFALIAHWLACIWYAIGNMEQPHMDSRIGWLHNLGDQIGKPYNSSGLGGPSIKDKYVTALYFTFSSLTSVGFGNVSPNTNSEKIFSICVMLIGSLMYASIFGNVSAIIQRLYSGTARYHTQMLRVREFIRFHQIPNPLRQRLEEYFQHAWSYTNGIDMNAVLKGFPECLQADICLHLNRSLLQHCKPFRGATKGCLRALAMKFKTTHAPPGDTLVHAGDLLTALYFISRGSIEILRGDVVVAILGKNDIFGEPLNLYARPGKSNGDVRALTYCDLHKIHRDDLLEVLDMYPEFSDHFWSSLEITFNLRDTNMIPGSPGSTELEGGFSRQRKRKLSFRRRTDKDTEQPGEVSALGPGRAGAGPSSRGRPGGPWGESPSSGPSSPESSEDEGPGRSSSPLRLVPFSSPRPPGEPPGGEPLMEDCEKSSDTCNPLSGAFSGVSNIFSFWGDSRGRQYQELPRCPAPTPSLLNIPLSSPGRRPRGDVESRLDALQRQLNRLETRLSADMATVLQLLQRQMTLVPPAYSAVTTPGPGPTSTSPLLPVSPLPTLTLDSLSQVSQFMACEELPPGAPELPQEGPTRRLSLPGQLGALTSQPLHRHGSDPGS", "experiment": "primary screen, population patch clamp on CHO cells stably expressing hERG", "units": {"hERG current change (%, negative = inhibition) at 10uM": "%"}, "values": [
      {"smiles": "CCNC(=S)N1N=C2c3ccccc3CCC2C1c1ccc(F)cc1", "note": "(stereo not drawn)", "hERG current change (%, negative = inhibition) at 10uM": 13.8},
      {"smiles": "O=C(NCCc1c[nH]c2ccccc12)C(=O)NCC1OCCCN1S(=O)(=O)c1cc(F)ccc1F", "note": "(stereo not drawn)", "hERG current change (%, negative = inhibition) at 10uM": 4.56},
      {"smiles": "COC(=O)C(c1cc(OC)c(O)c(OC)c1)(N1CCNC(C)C1)C(F)(F)F", "note": "(stereo not drawn)", "hERG current change (%, negative = inhibition) at 10uM": -9.77},
      {"smiles": "CC1Cc2ccccc2N1Cc1cc(=O)c(OCC(=O)NCCc2ccccc2)co1", "note": "(stereo not drawn)", "hERG current change (%, negative = inhibition) at 10uM": 8.71},
      {"smiles": "COc1ccccc1C(=O)NNC(=O)CCN1C(=O)/C(=C\\c2ccccc2)SC1=S", "hERG current change (%, negative = inhibition) at 10uM": 16.4},
      {"smiles": "CC1CN(C(=O)C(c2ccccc2)c2ccccc2)CC(C)O1", "note": "(stereo not drawn)", "hERG current change (%, negative = inhibition) at 10uM": 13.7},
      {"smiles": "O=C(COC(=O)c1ccc(Br)cc1)NCc1ccc(F)cc1", "hERG current change (%, negative = inhibition) at 10uM": 18.1},
      {"smiles": "CC(C)c1ccc(/C=C/C(=O)NC2=NCCS2)cc1", "hERG current change (%, negative = inhibition) at 10uM": 10.8},
      {"smiles": "Cc1nnc(SCC(=O)Nc2ccc3c(c2)OCCO3)s1", "hERG current change (%, negative = inhibition) at 10uM": 16.9},
      {"smiles": "CCOc1ccc(N(CC(=O)N2CCOCC2)S(=O)(=O)c2ccc(SC)cc2)cc1", "hERG current change (%, negative = inhibition) at 10uM": -14.3},
      {"smiles": "O=CN1CCN(C(=O)CC(c2ccccc2)c2cc(Br)ccc2O)CC1", "note": "(stereo not drawn)", "hERG current change (%, negative = inhibition) at 10uM": -40.3},
      {"smiles": "CCNC(=O)CN(CCc1ccccc1)S(C)(=O)=O", "hERG current change (%, negative = inhibition) at 10uM": 17.8},
      {"smiles": "Cc1ccc2[nH]c(=O)c(COC(=O)C3CCCO3)cc2c1", "note": "(stereo not drawn)", "hERG current change (%, negative = inhibition) at 10uM": 4.86},
      {"smiles": "CCCCn1c(N)c(N(CC(C)C)C(=O)CN(C)S(=O)(=O)c2ccc(C)cc2)c(=O)[nH]c1=O", "hERG current change (%, negative = inhibition) at 10uM": -0.501},
      {"smiles": "O=C(Nc1cccc(-c2cnc3ccccc3n2)c1)C1CC(=O)N(c2ccccc2)C1", "note": "(stereo not drawn)", "hERG current change (%, negative = inhibition) at 10uM": -1.19},
      {"smiles": "COc1ccc(S(=O)(=O)Nc2ccccc2C(F)(F)F)cc1", "hERG current change (%, negative = inhibition) at 10uM": -13.9},
      {"smiles": "CCCC(=O)NC1=C(C#N)C2(CCCCC2)Cc2ccccc21", "hERG current change (%, negative = inhibition) at 10uM": 1.47},
      {"smiles": "CC(=O)c1ccc(OCCCC(=O)OCc2nnc(-c3ccc(Cl)cc3)o2)cc1", "hERG current change (%, negative = inhibition) at 10uM": -1.83},
      {"smiles": "O=C(CSc1nccn1-c1ccc(Cl)cc1)Nc1ccc2c(c1)OCO2", "hERG current change (%, negative = inhibition) at 10uM": -12},
      {"smiles": "Cc1cccc(NC(=S)NC2CC3CCCC(C2)N3Cc2cccs2)c1", "note": "(stereo not drawn)", "hERG current change (%, negative = inhibition) at 10uM": -35.9},
      {"smiles": "Cc1cc(SCC(=O)NCCC2=CCCCC2)nc2ccccc12", "hERG current change (%, negative = inhibition) at 10uM": -10.9},
      {"smiles": "Cc1occc1C(=O)N/N=C/c1ccc(-c2cccc([N+](=O)[O-])c2)o1", "hERG current change (%, negative = inhibition) at 10uM": 1.37},
      {"smiles": "COc1ccc(CNC(=O)CCCn2nc(C)n3c(cc4sccc43)c2=O)cc1", "hERG current change (%, negative = inhibition) at 10uM": -1.61},
      {"smiles": "CCOC(=O)c1sc2ncc([N+](=O)[O-])cc2c1N", "hERG current change (%, negative = inhibition) at 10uM": 1.98}
    ]}
  ]
}
